Source: the supplement of paper PMC4604168 (melanoma cell lines)
The list shows a part of the results. Many values rest on one well or one pass, so single values are uncertain.

Legend:
Assay in all cases: cell count relative to DMSO control; melanoma cells; higher = more viable cells
Settings in all cases: library dose: low library concentration; 72 h
MZ2-MEL = test system: MZ2-MEL
MeWo = test system: MeWo
RPMI7951 = test system: RPMI7951
RVH-421 = test system: RVH-421
SkMel28 = test system: SkMel28
SkMel2 = test system: SkMel2
SkMel30 = test system: SkMel30
SkMel5 = test system: SkMel5
UACC257 = test system: UACC257
UACC62 = test system: UACC62
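Further: cell number obtained by counting DAPI-stained nuclei in high-throughput microscope images with image analysis software, screen run in 1,536-well plates.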

Compound	cell count (MZ2-MEL)	cell count (MeWo)	cell count (RPMI7951)	cell count (RVH-421)	cell count (SkMel28)	cell count (SkMel2)	cell count (SkMel30)	cell count (SkMel5)	cell count (UACC257)	cell count (UACC62)
Cn1cnc2c(F)c(Nc3ccc(Br)cc3Cl)c(C(=O)NOCCO)cc21 [selumetinib] + O=S(=O)(c1ccccc1)N(CC(F)(F)F)c1ccc(C(O)(C(F)(F)F)C(F)(F)F)cc1 [T0901317] (first compound 0.015 µM, partner dose 1.4 µM)	97.5%	86.8%	90.5%	76.1%	83.2%	75%	81.6%	111%	84.9%	74.6%
Cn1cnc2c(F)c(Nc3ccc(Br)cc3Cl)c(C(=O)NOCCO)cc21 [selumetinib] + O=C(O)c1ccc(-c2c[nH]c3ncc(-c4ccccc4)cc23)cc1C1CCCC1 [GSK650394] (first compound 0.015 µM, partner dose 0.16 µM)	88.1%	79.2%	121%	83.2%	91.5%	73.9%	67.8%	112%	77.1%	86%
CCN(CC)CCNC(=O)c1c(C)[nH]c(/C=C2\C(=O)Nc3ccc(F)cc32)c1C [sunitinib] + COC(=O)c1sccc1S(=O)(=O)Nc1ccc(Nc2ccccc2)cc1OC [GSK0660] (first compound 0.4 µM, partner dose 1 µM)	98.1%	92.2%	94.4%	124%	98.8%	116%	82.2%	104%	110%	84.3%
C[C@]1(O)C[C@@H](c2nc(-c3ccc4ccc(-c5ccccc5)nc4c3)c3c(N)nccn32)C1 + Oc1cc(-c2nc(-c3ccccc3)[nH]c2-c2ccncc2)ccc1Cl [L779450] (first compound 0.4 µM, partner dose 0.2 µM)	73.1%	102%	89.8%	81%	76.2%	85.4%	76.1%	93.8%	84.8%	83.4%
Cn1cnc2c(F)c(Nc3ccc(Br)cc3Cl)c(C(=O)NOCCO)cc21 [selumetinib] + O=C(Nc1ccccc1)c1cc([N+](=O)[O-])ccc1Cl [GW9662] (first compound 0.015 µM, partner dose 2 µM)	87.8%	81.6%	88.3%	72.5%	104%	69.3%	63%	100%	73.5%	84.5%
Cn1cnc2c(F)c(Nc3ccc(Br)cc3Cl)c(C(=O)NOCCO)cc21 [selumetinib] + COc1ccc(-c2ccc3c(N4CCOCC4)nc(N4C[C@@H](C)O[C@@H](C)C4)nc3n2)cc1CO [KU0063794] (first compound 0.015 µM, partner dose 0.02 µM)	101%	86.6%	93.8%	58.3%	66.4%	85%	30.7%	113%	69.9%	61.4%
CCN(CC)CCNC(=O)c1c(C)[nH]c(/C=C2\C(=O)Nc3ccc(F)cc32)c1C [sunitinib] + O=S(=O)(c1ccccc1)N(CC(F)(F)F)c1ccc(C(O)(C(F)(F)F)C(F)(F)F)cc1 [T0901317] (first compound 0.4 µM, partner dose 1.4 µM)	100%	83%	98%	107%	88%	101%	63.9%	85.3%	110%	80.7%
COc1cc([C@@H]2c3cc4c(cc3[C@@H](O[C@@H]3O[C@@H]5CO[C@@H](C)O[C@H]5[C@H](O)[C@H]3O)[C@H]3COC(=O)[C@H]23)OCO4)cc(OC)c1O [etoposide] + C=CCn1c(=O)c2cnc(Nc3ccc(N4CCN(C)CC4)cc3)nc2n1-c1cccc(C(C)(C)O)n1 [MK1775] (first compound 0.02 µM, partner dose 0.02 µM)	91.1%	83.6%	95.9%	84.8%	82.5%	98.5%	95.8%	95.7%	97.1%	72.5%
CCN(CC)CCNC(=O)c1c(C)[nH]c(/C=C2\C(=O)Nc3ccc(F)cc32)c1C [sunitinib] + Cn1cc(/C=C2\C(=O)Nc3cccnc32)c2ccccc21 [GW441756] (first compound 0.4 µM, partner dose 0.4 µM)	105%	75.4%	95.6%	117%	85.7%	111%	73.7%	85.5%	85.7%	93.5%
COc1cc([C@@H]2c3cc4c(cc3[C@@H](O[C@@H]3O[C@@H]5CO[C@@H](C)O[C@H]5[C@H](O)[C@H]3O)[C@H]3COC(=O)[C@H]23)OCO4)cc(OC)c1O [etoposide] + COc1ccc(-c2ccc3c(N4CCOCC4)nc(N4C[C@@H](C)O[C@@H](C)C4)nc3n2)cc1CO [KU0063794] (first compound 0.02 µM, partner dose 0.02 µM)	89.7%	105%	103%	109%	73.7%	99.1%	91.1%	88.7%	98.2%	94%
COc1cc([C@@H]2c3cc4c(cc3[C@@H](O[C@@H]3O[C@@H]5CO[C@@H](C)O[C@H]5[C@H](O)[C@H]3O)[C@H]3COC(=O)[C@H]23)OCO4)cc(OC)c1O [etoposide] + O=C1NC(=O)/C(=C/c2ccc(-c3ccc(F)cc3O)o2)S1 [AS252424] (first compound 0.02 µM, partner dose 1 µM)	104%	78.9%	117%	110%	81.2%	104%	93.4%	98.6%	82.2%	86.7%
COc1cc([C@@H]2c3cc4c(cc3[C@@H](O[C@@H]3O[C@@H]5CO[C@@H](C)O[C@H]5[C@H](O)[C@H]3O)[C@H]3COC(=O)[C@H]23)OCO4)cc(OC)c1O [etoposide] + Oc1cc(-c2nc(-c3ccccc3)[nH]c2-c2ccncc2)ccc1Cl [L779450] (first compound 0.02 µM, partner dose 0.2 µM)	73.6%	91.5%	84.8%	75%	80%	83%	97.9%	114%	94.5%	66.8%
C[C@]1(O)C[C@@H](c2nc(-c3ccc4ccc(-c5ccccc5)nc4c3)c3c(N)nccn32)C1 + Oc1nc(-c2ccc(C(F)(F)F)cc2)nc2c1CSCC2 [XAV939] (first compound 0.4 µM, partner dose 2 µM)	91.8%	81.1%	95.2%	106%	81.6%	97.3%	96.5%	72.9%	92.3%	84.3%
CCN(CC)CCNC(=O)c1c(C)[nH]c(/C=C2\C(=O)Nc3ccc(F)cc32)c1C [sunitinib] + COc1cc(Nc2ncc(F)c(Nc3ccc4c(n3)NC(=O)C(C)(C)O4)n2)cc(OC)c1OC [Tamatinib] (first compound 0.4 µM, partner dose 0.4 µM)	95%	92.4%	94.6%	115%	90.6%	113%	80.7%	108%	92.6%	86.7%
CCN(CC)CCNC(=O)c1c(C)[nH]c(/C=C2\C(=O)Nc3ccc(F)cc32)c1C [sunitinib] + C[C@@H]1CCN(C(=O)CC#N)C[C@@H]1N(C)c1ncnc2[nH]ccc12 [CP690550] (first compound 0.4 µM, partner dose 1 µM)	122%	101%	103%	140%	93.7%	110%	106%	109%	106%	96.7%
Cn1cnc2c(F)c(Nc3ccc(Br)cc3Cl)c(C(=O)NOCCO)cc21 [selumetinib] + COC(=O)c1sccc1S(=O)(=O)Nc1ccc(Nc2ccccc2)cc1OC [GSK0660] (first compound 0.015 µM, partner dose 1 µM)	86.3%	102%	122%	81%	87.7%	73.7%	45.4%	111%	82.3%	61.4%
Cn1cnc2c(F)c(Nc3ccc(Br)cc3Cl)c(C(=O)NOCCO)cc21 [selumetinib] + Oc1nc(-c2ccc(C(F)(F)F)cc2)nc2c1CSCC2 [XAV939] (first compound 0.015 µM, partner dose 2 µM)	95.7%	95.1%	90%	78.1%	82.6%	88.7%	61.3%	88.2%	80.8%	63.1%
CCN(CC)CCNC(=O)c1c(C)[nH]c(/C=C2\C(=O)Nc3ccc(F)cc32)c1C [sunitinib] + NCC(=O)Nc1ccc(-n2nc(C(F)(F)F)cc2-c2ccc3c(ccc4ccccc43)c2)cc1 [OSU03012] (first compound 0.4 µM, partner dose 1 µM)	102%	71.9%	110%	121%	81.6%	73.9%	43%	120%	95.2%	82.9%
CCN(CC)CCNC(=O)c1c(C)[nH]c(/C=C2\C(=O)Nc3ccc(F)cc32)c1C [sunitinib] + O=C(CCCCCCC(=O)Nc1ccccc1)NO [vorinostat] (first compound 0.4 µM, partner dose 0.08 µM)	113%	90.4%	121%	129%	88.1%	111%	78.4%	97.3%	114%	83.7%
C[C@]1(O)C[C@@H](c2nc(-c3ccc4ccc(-c5ccccc5)nc4c3)c3c(N)nccn32)C1 + COC(=O)c1sccc1S(=O)(=O)Nc1ccc(Nc2ccccc2)cc1OC [GSK0660] (first compound 0.4 µM, partner dose 1 µM)	99.7%	107%	99.8%	93.1%	90.5%	75.5%	81.5%	84.7%	97.8%	94.3%
Cn1cnc2c(F)c(Nc3ccc(Br)cc3Cl)c(C(=O)NOCCO)cc21 [selumetinib] + CC(C)CCN1c2nc(Nc3cc(F)c(O)c(F)c3)ncc2N(C)C(=O)C1C [BID1870] (first compound 0.015 µM, partner dose 0.2 µM)	89.4%	81.1%	103%	84.9%	99.8%	60.3%	66.3%	104%	76.4%	67.1%
